# Assay results taken from ChEMBL document CHEMBL1201862, “PubChem BioAssay data set” (2004).
# Test system: NCI-H322M
# Assay: NCI tumour cell line growth inhibition, 48 h
row,SMILES,GI50
1,CC[C@@]1(O)C(=O)OCc2c1cc1n(c2=O)Cc2cc3c(NC(=O)CN)cccc3nc2-1,inactive: 4.85 µM
2,O=C(O)/C(=C\c1ccc(O)cc1)c1cccc2ccccc12,inactive: 85.1 µM
3,O=C1N[C@H]2c3c(Cl)sc(Cl)c3C(=O)[C@H]2O1,inactive: 18.5 µM
4,COc1nc(N)c(N=O)c(OCc2ccccc2)n1,inactive: > 10 µM
5,COc1ccc(NC(=O)C(C#N)=C(SC)SC)cc1,inactive: > 100 µM
6,COC(=O)C1=CC2CC1C(S(=O)(=O)c1ccccc1)C2S(=O)(=O)c1ccccc1 (stereo not given),inactive: 55.5 µM
7,C[C@]12[C@@H]3CC[C@H]1[C@@H](OC(=O)Nc1cc([N+](=O)[O-])cc([N+](=O)[O-])c1)C(=O)N2CC3,inactive: > 100 µM
8,CC(=O)N[C@@H](Cc1ccc(O)cn1)C(=O)NCc1cccc(F)c1,inactive: > 100 µM
9,COCCOCc1nc(C#N)c(N)o1,inactive: > 100 µM
10,CCc1c(C)c(C#N)c(=S)n(C2OC(CO)C(O)C(O)C2O)c1C (stereo not given),inactive: > 100 µM
11,CCOc1cc(/C=C2/C(C)=NN(c3cccc(Cl)c3)/C2=N/c2nc3ccccc3s2)ccc1O,inactive: 26.1 µM
12,Cc1cc(S(=O)(=O)Nc2nc(N)n(-c3cnc4ccccc4n3)n2)c(S)cc1Cl,inactive: 76.9 µM
13,CCCc1nnc2sc(COc3cc(Cl)c(OCc4nn5c(CCC)nnc5s4)cc3Cl)nn12,inactive: 61.9 µM
14,COc1cccc(-c2cc(=O)c3cc(C)c(C)c(C(=O)O)c3o2)c1,inactive: > 100 µM
15,O=[N+]([O-])c1ccc(Cc2nc3ccccc3s2)cc1,inactive: > 100 µM
16,C(=C/CCCN1O[C@@H](CCCCCCCCc2cccnc2)[C@H]2CCC[C@H]21)/CCCCCCCCCc1cccnc1,inactive: 16.3 µM
17,CC(=O)OC(C)(C)/N=N/c1ccc(Br)cc1,inactive: 44.9 µM
18,CCC(=O)OCN(C)c1nc(N(C)COC(=O)CC)nc(N(C)COC(=O)CC)n1,inactive: > 100 µM
19,Cc1no[n+]([O-])c1/C=N/NS(=O)(=O)c1ccccc1,inactive: > 100 µM
20,COc1cccc(C23CCCC(C2)NCC3Br)c1OC (stereo not given),inactive: > 100 µM
21,COc1cc2c3c([nH]c2c(OC)c1OC)CCN(Cc1ccccc1)C3,inactive: 42.6 µM
22,Cc1[nH]c2ncn3nc(C(Cl)(Cl)Cl)nc3c2c1Cc1ccccc1,inactive: > 100 µM
23,c1ccc(-c2ccc(/N=N/N3CCCC3)cc2)cc1,inactive: > 100 µM

row,SMILES,GI50
1,CN1C(c2ccccc2)CC(=NOCc2ccccc2)CC1c1ccccc1 (stereo not given),inactive: 20.3 µM
2,OC(c1ccccn1)C1CNc2ccccc21 (stereo not given),inactive: > 100 µM
3,C=C(c1ccccc1)c1cc2c(=O)[nH]ccc2n1C,inactive: 62.4 µM
4,O=c1[nH]nc(Cc2ccc(Cl)cc2)n1O,inactive: > 100 µM
5,Cc1c(/C=N/NC(=O)c2ccccc2O)c(=O)n(-c2ccccc2)n1C,inactive: > 100 µM
6,CCc1c(-c2ccc(OC)cc2)oc(OC)c(C)c1=O,inactive: > 100 µM
7,CCCCCCCCCCCCCC(=O)OC1C(CO)OC(=O)C1O (stereo not given),inactive: > 100 µM
8,CCOC(=O)C1=C(C)N(C)C23OC4(C(=O)OC)CC2c2ccccc2C1N3C4=O (stereo not given),inactive: 67.6 µM
9,C/C(=N\NC(N)=O)C(CN1CCOCC1)C(c1ccccc1)c1c(O)c2ccccc2oc1=O (stereo not given),inactive: > 100 µM
10,CC(C)C1CC=NN1C(=O)OC(C)(C)C (stereo not given),inactive: 81.1 µM
11,N=C1N(c2ccccc2)C(=O)C23CCCC2C13N1CCOCC1 (stereo not given),inactive: > 100 µM
12,Cc1cc2c(O)c(c1)CN(Cc1ccccc1)Cc1cc(C)cc(c1O)CN(Cc1ccccc1)Cc1cc(C)cc(c1O)CN(Cc1ccccc1)C2,inactive: > 100 µM
13,COc1ccc(-c2nc(N3CCCC3)no2)cc1,inactive: 54.7 µM
14,O=C(OCCO)C1CC2CC1C1(C2)OCCO1 (stereo not given),inactive: > 100 µM
15,COC1CCC(O)C(CO)O1 (stereo not given),inactive: > 100 µM
16,O=C1NC(=S)NC(=O)C1C(c1ccc(O)cc1)C1C(=O)NC(=S)NC1=O.c1ccncc1,inactive: > 100 µM
17,CC(=O)C(C(C)=O)[C@H]1OC(C)(C)O[C@H]1[C@H]1COC(C)(C)O1,inactive: 41.3 µM
18,COc1ccc(Cc2c(N)[nH]c(=O)n(C)c2=O)cc1,inactive: > 100 µM
19,CCOP(=O)(OCC)/C(=C/c1cccs1)CC(C)=O,inactive: > 100 µM
20,C=C1C(=O)OC2CC3(C)C=CC(=O)C(=C)C3CC12 (stereo not given),inactive: 11.8 µM
21,C[C@]1(S(=O)(=O)c2ccccc2)C[C@H]2N(Cc3ccccc3)[C@@H]1CCC21OCCO1,inactive: > 100 µM
22,CN1CCCCCC(=N\O)/C(=N/O)CCCCC1,inactive: > 100 µM
23,COc1ccc([N+]2=NC(c3ccc([N+](=O)[O-])cc3)=NN(c3ccccc3)C2)cc1.[O-][Cl+3]([O-])([O-])[O-],inactive: 63.1 µM

row,SMILES,GI50
1,CC(=O)OCC12CC(CC1OC(C)=O)c1ccccc12 (stereo not given),inactive: > 100 µM
2,Cc1c2c(n3c(nc4ccccc43)c1C#N)N(c1ccc(Cl)cc1)CC2,inactive: > 100 µM
3,O=C(c1cc(Cl)ccc1Cl)N1CCN(c2cccc(Cl)c2)CC1,inactive: 26.9 µM
4,Cc1ccc(C)c(NC2=NC(=O)C(CC(=O)Nc3ccc(Cl)cc3Cl)S2)c1 (stereo not given),inactive: 91.2 µM
5,CCn1c2c(c3c(C(=O)OC)c(O)ccc31)C(=O)c1ccccc1C2=O,inactive: 26.9 µM
6,CCSC(SCC)c1cc2c(cc1Br)OCO2,inactive: 21.1 µM
7,CCOC(=O)CCN1C(=O)c2ccc(NC(=O)C(=O)O)cc2S1(=O)=O,inactive: > 100 µM
8,C[C@]12C[C@@H](c3ccccc3)Nc3ccccc3N1C(c1ccccc1)=NO2,inactive: 53.7 µM
9,COc1ccc(SCc2cc(OCc3ccccc3)c(OCc3ccccc3)c(OCc3ccccc3)c2)cc1,inactive: 1.8 µM
10,COC(=O)C1C2C=CC(C2)C1(C(=O)OC)[S+]([O-])CC12CCC(CC1O)C2(C)C (stereo not given),inactive: > 100 µM
11,Cc1ccc2c(n1)NC(=O)C(Cc1ccccc1)(N=[N+]=[N-])C2=O (stereo not given),inactive: > 100 µM
12,COc1cc(C=C(c2ccc(N(C)C)cc2)c2ccc(N(C)C)cc2)c2ccccc2c1OC,inactive: > 100 µM
13,CCOC(=O)C(C(=O)OCC)=C1NC2(c3ccccc3Nc3ccc(C)cc32)C(C#N)S1 (stereo not given),inactive: 15.2 µM
14,COc1ccc(-c2c3ccccc3c(-c3ccc(OC)cc3)c3ccccc23)cc1,inactive: > 100 µM
15,O=C(O)/C=C/C(=O)N1C/C(=C\c2ccccc2)C(=O)/C(=C/c2ccccc2)C1,inactive: 14.2 µM
16,O=C(Nc1cc(Cl)cc(Cl)c1)/C(Cc1nc2ccccc2nc1O)=N/NC(=O)c1ccncc1,inactive: > 100 µM
17,OC1c2ccccc2CCC1C(O)(C(F)(F)F)C(F)(F)F (stereo not given),inactive: > 100 µM
18,Cc1noc(C)c1-n1nc2ccc3nonc3c2n1,inactive: > 100 µM
19,COC(=O)c1cc(C)ccc1C1CN=NC12Cc1ccc(C)cc1C2=O (stereo not given),inactive: > 100 µM
20,Cc1ccc(S(=O)(=O)N(CC(O)COc2ccccc2)c2ccccc2Cl)cc1 (stereo not given),inactive: 19.1 µM
21,CC1CCCc2c(CC3CC(=O)NC(=O)C3)nc(N)nc21 (stereo not given),inactive: > 100 µM
22,COc1cccc(CC(C)N)c1 (stereo not given),inactive: > 100 µM
23,Cc1cc2nc3ccccc3n2c2nc(N)ccc12,inactive: 37.8 µM

row,SMILES,GI50
1,O=C(O)CNc1ccc(Cl)c(Cl)c1,inactive: 22.6 µM
2,COc1cc(NC(C)CCCN)c2nccc(C)c2c1 (stereo not given),inactive: 18.5 µM
3,CN(C)CCCNCc1cccc2ccccc12,inactive: > 100 µM
4,COc1ccc(S(=O)(=O)N2C(=O)CCC2C(=O)NC(N)=O)cc1 (stereo not given),inactive: > 100 µM
5,CC(C)CCCC(C)[C@H]1CC[C@H]2[C@@H]3CC[C@H]4C[C@@H](CCC=C(c5cc(Cl)c(O)c(C(=O)O)c5)c5cc(Cl)c(O)c(C(=O)O)c5)CC[C@]4(C)[C@H]3CC[C@]12C (stereo not given in full),inactive: > 50 µM
6,O=C(Cc1nc2ccc(C(=O)c3ccccc3)cc2nc1O)C(=O)Nc1nc2ccccc2[nH]1,inactive: > 100 µM
7,O=C1CC2(CCC(O)(c3ccco3)C(C(=O)c3ccco3)C2)C(=O)c2ccccc2N1 (stereo not given),inactive: > 100 µM
8,COc1ccc(/C=N/NC(=O)c2ccc(O)c(CN(C)C)c2)cc1,inactive: > 100 µM
9,O=C(CNC(=O)c1ccccc1)Oc1c(Cl)c(Cl)c(Cl)c(Cl)c1Cl,inactive: 27.2 µM
10,O=C(NCCCCCCNC(=O)n1cc(F)c(=O)[nH]c1=O)NCCCOCCOCCOCCOCCOCCOCCOCCOCCOCCOCCOCCOCCOCCOCCOCCOCCOCCOCCOCCOCCOCCCNC(=O)C(O)C(O)C(OC1OC(CO)C(O)C(O)C1O)C(O)CO (stereo not given),inactive: 44 µM
11,CC(C)Sc1nc(C#N)cc2c1CCCC2,inactive: > 100 µM
12,Cc1ccc(S(=O)(=O)Nn2c(C)cc3ccc(S(=O)(=O)Nc4ccccc4[N+](=O)[O-])cc3c2=O)cc1,inactive: > 100 µM
13,CC(=O)Nc1ccc(-c2nnc(SCC(=O)Nc3ccccc3[N+](=O)[O-])o2)cc1,inactive: > 100 µM
14,O=C(CC(=O)Nc1ccccc1Cl)NNC(Sc1ccccc1)c1cc(/N=N/c2ccc(Br)cc2)ccc1O (stereo not given),active: 0.611 µM
15,O=[N+]([O-])CCc1cccc([N+](=O)[O-])c1,inactive: > 100 µM
16,COc1cc(/C=C/C(=O)O)ccc1OS(=O)(=O)O,inactive: > 100 µM
17,C=C1CC(OC)(C(OC)C(=O)N(C)[C@H]2OCO[C@H]3C2O[C@H](C[C@@H](COC)OC)C(C)(C)C3OC)O[C@H](C)[C@@H]1C (stereo not given in full),inactive: 10.1 µM
18,CSCC[C@@H](NC(=O)[C@H](CC(C)C)NC(=O)C(Cc1cnc[nH]1)NC(=O)CNC(=O)[C@@H](NC(=O)[C@H](C)NC(=O)[C@H](Cc1cn(C=O)c2ccccc12)NC(=O)[C@H](CCC(N)=O)NC(=O)[C@@H](N)CC(N)=O)C(C)C)C(N)=O (stereo not given in full),inactive: > 100 µM
19,O=C1/C=C(/c2ccc(O)cc2)[C@@H](OC2OC(CO)C(O)C(O)C2O)Cc2ccc(O)cc2O1.O=C1/C=C(/c2ccc(O)cc2)[C@H](O)Cc2ccc(O[C@@H]3OC(CO)C(O)C(O)C3O)cc2O1 (stereo not given in full),inactive: > 100 µM
20,CC(=O)Nc1ccc(S(=O)(=O)Nc2nnc(S(N)(=O)=O)s2)cc1,inactive: > 100 µM
21,COc1ccc(C(C#N)Cc2cc(OC)c(OC)c(OC)c2)cc1 (stereo not given),inactive: 78 µM

#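 Cells were grown in 96-well plates and exposed to each compound for 48 hours at five concentrations; endpoints were interpolated linearly between bracketing concentrations, or set to the highest concentration if not reached. At the GI50, growth is halved.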 Active and inactive are the calls of the source. No stated cut-off is given here; in the data, active = GI50 up to about 1.1 µM and inactive = higher.
